Reference: PubChem BioAssay AID686971 (National Center for Advancing Translational Sciences (NCATS), 2013)
Among all 360,000 compounds or so, about 7,500 (2.1%) were called active. Inconclusive means that the source gave no clear call. Such entries were picked first, then a sample of the others. The call rests on the fitted dose curve; in most records, active means well fitted cell-killing curve with a large enough effect; inconclusive means small, poorly fitted or top-dose-only effect, or effect the other way, or another doubt; inactive means no such curve, though single readings can be large or run the other way. No potency is given beside an inconclusive call; the fits are too rough.

Assay: qHTS for induction of synthetic lethality in tumor cells producing 2HG: qHTS for the HT-1080-IDH1KD cell line;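 on activity, negative = toxicity: 0% = DMSO wells and -100% = cell-free medium wells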
Conditions: HT-1080 IDH1 knockdown viability, ATP luminescence, 48 h; activity, negative = toxicity: at 46.1 µM (top of the series) unless noted
How it was run: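 Knockdown cells (IDH1KD HT-1080) received compounds 2 h after plating at 750 cells/well and were kept 48 h at 37 °C in 5% FBS RPMI. A CellTiter-Glo luminescence read gave % activity for curve fitting.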
Potency means the concentration at half of the fitted maximal effect; tags describe the fitted curve by direction and shape.

Row | SMILES | activity, negative = toxicity | Potency
1 | COCCCNS(=O)(=O)c1ccc2[nH]c3c(c2c1)CCCCC3 | inactive: 0% | –
2 | c1ccc(C2c3[nH]c4ccccc4c3CCN2Cc2cccn2-c2ccccn2)nc1 (stereo not given) | inactive: -5.61% | –
3 | Cc1ccc2c(c1)c1c(n2CC(O)CNC2CCCCC2)CCCC1 (stereo not given) | – | active: 16.4 µM
4 | C=C(C)CCC1(C)NC(=O)N(c2ccccc2)N1 (stereo not given) | – | active: 14.6 µM
5 | CCCCC(=O)Nc1cccc(-c2csc(-c3ccccc3)n2)c1 | – | inconclusive [cytotoxic, single point]
6 | O=C(NCC1(c2ccccc2)CCCC1)C1(c2ccccc2)CCCC1 | – | inconclusive [cytotoxic, single point]
7 | CSCCC1NC(=O)N(CC(=O)N2N=C(c3ccc(Cl)cc3)CC2c2ccco2)C1=O (stereo not given) | – | inconclusive [cytotoxic, single point]
8 | CCc1cccc(CC)c1-n1c(SCC(=O)N2CCc3ccccc32)nc(O)cc1=O | inconclusive: -20.1% [cytotoxic] | –
9 | CCOC(=O)C1=C(C)N=c2sc(=Cc3ccc(OCC(=O)O)cc3)c(=O)n2C1c1ccc(SC)cc1 (stereo not given) | – | inconclusive [cytotoxic, single point]
10 | CCN(CC)c1ccc(/C=N/Nc2ccc(C)cc2)c(O)c1 | inactive: -6.09% | –
11 | O=C1CC(c2ccccc2)CC(O)=C1C=NC1CCCCCC1 (stereo not given) | – | inconclusive [cytotoxic, single point]
12 | CCOc1ccc(C(=O)Nc2ccc(Cc3ccncc3)cc2)cc1Br | – | inconclusive [cytotoxic, single point]
13 | Cc1cc(C(=O)N2CCCC(N3CCN(Cc4ccc5c(c4)OCO5)CC3)C2)n[nH]1 (stereo not given) | inactive: 3.89% | –
14 | Cc1nn(-c2ccccc2)c2nc(N)c(C#N)c(-c3ccc(O)c(O)c3)c12 | – | inconclusive [cytotoxic, single point]
15 | Nc1nc2ccc(Cl)cc2cc1C(=O)NCc1ccc(Oc2ccccc2)cc1 | – | inconclusive [cytotoxic, single point]
16 | Cc1c(C(=O)N/N=C/C(C)C)[nH]c2c([N+](=O)[O-])cccc12 | – | active: 2.59 µM
17 | NS(=O)(=O)c1ccc(CNC(=O)c2cc(-c3ccccn3)nc3ccc(Cl)cc23)cc1 | – | inconclusive [cytotoxic, partial curve]
18 | N#CC1=C(N)C(C#N)(C#N)[C@H](c2ccoc2)[C@H]2CN(Cc3ccccc3)CC=C12 | – | active: 2.59 µM
19 | O=C(Cn1cncn1)N/N=C/c1ccccc1O | inactive: 0.0997% | –
20 | CC(=O)Nc1ccc(S(=O)(=O)N2CCN(CCCOc3cc(C)ccc3C)CC2)cc1 | – | inconclusive [cytotoxic, single point]
21 | COc1ccc(N2CC(NS(=O)(=O)c3ccc(F)cc3)CC2=O)cc1 (stereo not given) | inactive: -9.98% | –
22 | Cc1nn2c(N3CCN(CCO)CC3)c3c(nc2c1-c1ccccc1)CCCC3 | – | inconclusive [cytotoxic, single point]
23 | Cc1onc(-c2ccccc2Cl)c1C(=O)N1CCCc2ccccc21 | – | inconclusive [cytotoxic, single point]
24 | CC(=O)Nc1ccc2c(CN3C(=O)NC(C)(c4ccc(C)cc4)C3=O)cc(=O)oc2c1 (stereo not given) | – | inconclusive [cytotoxic, partial curve, poor fit]

Row | SMILES | activity, negative = toxicity | Potency
25 | Cc1ccc(C(=O)NC(=C(Cl)Cl)S(=O)(=O)c2ccc(Cl)cc2)cc1 | – | inconclusive [cytotoxic, single point]
26 | CCC1CN(C(=O)NCc2ccc(F)cc2)c2ccccc2O1 (stereo not given) | inactive: 7.51% | –
27 | Cc1ccc(CNC(=O)CS(=O)CC(=O)O)cc1 (stereo not given) | inactive: 4.37% | –
28 | COc1ccccc1NC(=O)Nc1ccccc1N1CCOCC1 | inactive: 9.28% | –
29 | CC(C)=C(NC(=O)c1ccccc1Cl)C(=O)NCCc1nc2ccccc2[nH]1 | inactive: 2.99% | –
30 | COCCNC(=O)COC(=O)/C=C/c1c(C)nn(Cc2ccc(Cl)cc2Cl)c1Cl | – | inconclusive [cytotoxic, partial curve]
31 | Cc1ccc(-n2c(C)cc(/C=N/NC(=O)c3ccncc3)c2C)c(C)c1 | – | inconclusive [cytotoxic, single point]
32 | CCCC(=O)NC(c1ccc(N(C)C)cc1)c1ccc2cccnc2c1O (stereo not given) | – | inconclusive [cytotoxic, full curve, poor fit]
33 | O=C1N(Cc2ccccc2)CC2(Br)COCOC12O (stereo not given) | – | inconclusive [cytotoxic, single point]
34 | COc1ccc2c(c1)C(=O)N(c1ccc(C)cc1C)C(=O)C2 | inactive: 15.5% | –
35 | CCCOC(=O)/C(C(N)=NCc1ccccc1)=C(\O)OCCC | – | inconclusive [cytotoxic, single point]
36 | CC(C)(C)C(=O)Nc1ccc(NC(=O)C(C)(C)C)cc1 | – | inconclusive [rising, single point]
37 | CCCN(CC(=O)Nc1ccccc1C)C(=O)/C=C/c1ccc(S(=O)(=O)N2CCCCCC2)cc1 | inactive: -24.2% | –
38 | Cc1ccc(Cc2c(-c3ccc(C#N)cc3)nc3c4ccccc4ccn23)cc1 | inactive: 7.29% | –
39 | O=C(NC(=S)Nc1ccc(CN2CCOCC2)cc1)c1ccc(-c2ccc(Br)cc2)o1 | inactive: 4.22% | –
40 | COc1ccccc1/C=C/C(=O)NCC(=O)n1nc(C)cc1C | inactive: 5.35% | –
41 | CC(=O)N(NC(=O)c1ccccc1Cl)C1CC(=O)N(c2ccc(C)cc2)C1=O (stereo not given) | inactive: 19.6% | –
42 | OC(CNC1CCCCC1)COCCOc1ccc(Br)cc1 (stereo not given) | – | inconclusive [cytotoxic, partial curve]
43 | COc1ccc(N(CC(=O)Nc2ccc(OC)cc2OC)S(=O)(=O)c2ccccc2)cc1 | – | inconclusive [cytotoxic, partial curve]
44 | CC1(C(=O)Nc2cccc(C(F)(F)F)c2)Cc2c(-c3ccc4c(c3)OCO4)ccnc2O1 (stereo not given) | – | inconclusive [cytotoxic, single point]
45 | Cc1ccc2[nH]c(-c3ccccc3)c(CN3CCN(C)CC3)c(=O)c2c1 | – | inconclusive [cytotoxic, single point]
46 | COc1cccc(-c2cnc3c(NC(C)=O)cc(-c4cccc(NC(C)=O)c4)cn23)c1 | – | inconclusive [cytotoxic, single point]
47 | COC(=O)c1ccc(CSc2nnc(CNC(=O)c3ccccc3F)o2)o1 | inactive: 3.77% | –
48 | Cn1cc([N+](=O)[O-])c(C(=O)Nc2ccc3c(c2)OCCO3)n1 | – | active: 11.2 µM

Row | SMILES | activity, negative = toxicity | Potency
49 | O=C(NCc1ccco1)C(c1ccc(F)cc1)N(CC1CCCO1)C(=O)Cn1nnc2ccccc21 (stereo not given) | inactive: 11.5% | –
50 | Cc1ccc(-n2cc(CN3CCN(Cc4nccn4C)CC3)c(-c3ccc(F)cc3)n2)cc1 | – | inconclusive [cytotoxic, single point]
51 | Cc1nn(-c2ccc(Cl)cc2)c(Cl)c1/C=N/NC(=O)c1ccc(NS(=O)(=O)c2cccs2)cc1 | – | inconclusive [cytotoxic, single point]
52 | CCC(CO)NCc1ccc(-c2ccccc2)cc1 (stereo not given) | inactive: -22.7% | –
53 | COc1ccc(-c2nnc(SCC(=O)NCC3CCCO3)n2C)cc1 (stereo not given) | – | inconclusive [rising, single point]
54 | Cc1cc(-c2cc(-c3ccc(Cl)cc3)nc(N)c2C#N)co1 | – | inconclusive [cytotoxic, single point]
55 | CNc1nc2[nH]c(=O)c3c(c2s1)OC(N)=C(C#N)C3c1cccc(F)c1 (stereo not given) | inactive: 23.5% | –
56 | NC(=O)CC(NC(=O)Cc1ccc(Br)cc1)c1ccc(NCc2ccc(F)cc2)c([N+](=O)[O-])c1 (stereo not given) | – | inconclusive [cytotoxic, single point]
57 | Cc1ccc(S(=O)(=O)NC2(C(F)(F)F)NC(=O)N(Cc3ccccc3)C2=O)cc1 (stereo not given) | inactive: 11.8% | –
58 | CCOc1ccccc1NC(=O)C1CCN(C(=O)C2CC(=O)N(c3ccc(C)cc3)C2)CC1 (stereo not given) | inactive: 3.99% | –
59 | CC(=O)[C@H]1[C@H](C#N)C[C@H]2[C@@H]3CC=C4C[C@@H](O)CC[C@]4(C)[C@H]3CC[C@@]21C | inactive: 1.45% | –
60 | Cc1ccc(S(=O)(=O)n2cc(-c3ccccc3)c3ccccc32)cc1 | – | inconclusive [cytotoxic, full curve]
61 | Cc1cc(C(=O)CN2C(=O)C(=O)N(Cc3ccco3)C2=O)c(C)n1CCc1ccc(F)cc1 | – | inconclusive [cytotoxic, single point]
62 | CCc1nc2ccc(C(=O)Nc3cccc(OC)c3)cn2c1N(C)CCCc1ccccc1 | – | inconclusive [cytotoxic, single point]
63 | Cc1c(C#N)c(NC(=O)CCl)n(Cc2ccc(F)cc2)c1C | – | inconclusive [cytotoxic, partial curve]
64 | COc1ccc(N2C(=O)CC(N3CCC(O)(c4ccc(Br)cc4)CC3)C2=O)cc1 (stereo not given) | inactive: -0.761% | –
65 | CCCN1CCN(C(=S)Nc2ccc([N+](=O)[O-])cc2)CC1 | – | inconclusive [cytotoxic, partial curve]
66 | CC(C)Nc1nc(NC(C)C)nc(OCCOC(=O)Nc2ccccc2)n1 | – | inconclusive [cytotoxic, single point]
67 | COC(=O)[C@]12CCCCC=C1N(Cc1ccc3c(c1)OCO3)C(=O)[C@H](CC(=O)NCC13CC4CC(CC(C4)C1)C3)C2 | – | inconclusive [cytotoxic, single point]
68 | CCOc1ccc(N(CC(=O)Nc2cccc(F)c2)S(=O)(=O)c2c(C)noc2C)cc1 | – | inconclusive [cytotoxic, single point]
69 | CC(CC(=O)OCC(=O)Nc1ccc2[nH]c(=O)[nH]c2c1)c1ccccc1 (stereo not given) | inactive: -1.92% | –
70 | COc1cccc2c(Nc3ccccc3C)cc(C)nc12 | – | inconclusive [cytotoxic, single point]
